Laboratory results as given in patent US20170043031A1, “IGF-1R ANTIBODY-DRUG-CONJUGATE AND ITS USE FOR THE TREATMENT OF CANCER” (PIERRE FABRE MEDICAMENT, priority 2014, published 2017).

Key:
[1] = target: T1, soluble recombinant human IGF-1R (Homo sapiens, UniProt P08069); assay: Biacore X100 single cycle kinetics, around 160 RU captured antigen (Example 4); format: binding; settings: IGF1R human
T1 construct: composed of 2α chains and the extracellular domains of 2β chains; purchased R&D Systems 305-GR-50
Experimental: (§1) The recognition experiments were run on a Biacore X100 device using a CM5 sensor chip activated by an anti-Tag His antibody (His capture kit GE Healthcare catalogue number 28-9950-56). More than 11000 RU of antibodies are chemically grafted on the carboxymethyldextan matrix using the amine kit chemistry. The experiments were carried out at 25° C. with a flow rate of 30 μl/min using the HBS-EP buffer (GE Healthcare) as the running and sample dilution buffer.
(§2) A solution of a soluble recombinant version of the IGF-1R hetero-tetramere composed of 2α chains and the extracellular domains of 2β chains expressed with an additional C-terminal 10-His tag, based either on the sequence of the human (R&D Systems catalogue number 305-GR-50) or of the one of cynomolgus (produced in house) was injected 1 minute on the second flowcell at a dilution defined to capture around 160 RU of antigen. After the capture phase, either the running buffer was injected 5 times (90 s each injection) or a growing range of 5 concentrations of c208F2 were injected (90 s each injection) on both flowcells. At the end of the fifth injection the running buffer was passed in order to define the dissociation rate.
(§3) The surface was then regenerated with an injection of a 10 mM Glycine, HCl pH 1.5 buffer during 30 s.
(§4) The computed signal corresponds to the difference between the response of the flowcell 2 (with captured IGF-1R) and the response of the flowcell 1 (without any IGF-1R molecules) (FIG. 6).
(§5) For each IGF-1R molecule (human or cyno), the signal due to the injections of the growing range of concentrations of c208F2 was corrected by subtraction of the signal obtained with the 5 injections of the buffer (double reference). The resulting sensorgrams were analysed using the Biaevaluation software with a 1:1 model. The kinetic rates are evaluated either independently (2 kinetics rates of the binding of c208F2 on each IGF-1R) or commonly (the same kinetic rates of the binding of c208F2 on the human and the cynomolgus IGF-1R). The quality of the fitting was assessed by a Chi2/Rmax ratio lower than 0.05 RU.

[2] = tested on: soluble recombinant cynomolgus IGF-1R; assay: as above; format: binding; settings: IGF1R cynomogus
Experimental: as §1, §2, §3, §4, §5

[3] = target: human and the cynomolgus IGF-1R; assay: Biacore X100, common fit of both sensorgrams (Example 4); format: binding; settings: Hum. & Cyno., same kinetic rates fitted
Experimental: as §1, with “buffer. […]” for “buffer.”
as §5

IGF-1R on MCF-7 cells = target: T2, IGF-1R on MCF-7 cells (Homo sapiens, UniProt P08069); assay: IGF-1R internalization by FACS on MCF-7 cells (4° C. vs 37° C., 4 h); format: cell-based; settings: MCF-7, chimeric antibodies; read-out: ΔMFI_EC50
T2 construct: all generated antibodies are capable to recognize the native IGF-1R form; host or cells: MCF-7
Experimental: (§6) MCF-7 cells were incubated with 10 μg/ml of chimeric antibodies at 4° C. for 20 min. Then, cells were washed and incubated at 4° C. or 37° C. for 4 h. The quantity of cell-surface bound antibody was determined using a secondary antibody. The ΔMFI defined as the difference between MFI measured at 4° C. and MFI measured at 37° C. after a 4 hour incubation time corresponded to the quantity of internalized Ab. The percentage of internalization at 10 μg/ml of Ab were calculated as followed 100*(MFI at 4° C.−MFI at 37° C.)/MFI at 4° C. and presented in Table 11.
as §6, with “The capacity of the mAb hz208F2 VH3NL3 to be internalized was assessed by flow cytometry. MCF-7” for “MCF-7”, “of” for “of chimeric”, “13.” for “11.”
as §6, with “of humanized” for “of chimeric”, “secondary antibody on a FacsCalibur Flow cytometer (Becton Dickinson).” for “secondary antibody.”, “Ab was” for “Ab were”, “C. The humanized antibody hz208F2 H077/L018 is able to induce a significant internalization of IGF-1R.” for “C. and presented in Table 11.”

[4] = tested on: Human Urethelial Cells (HUC); assay: FACS binding of c208F2 on primary normal cells; settings: 10 μg/ml of c208F2, HUC
Experimental: (§7) The expression levels of IGF-1R were evaluated on primary normal cells (PromoCell GmbH) using c208F2 mAb. For that purpose, cells (0.5×10^6 cells/ml) were incubated with 10 μg/ml of c208F2 antibody for 20 min. at 4° C. in FACS buffer (PBS, 0.1% BSA, 0.01% NaN3). They were then washed 3 times and incubated with the appropriate secondary antibody coupled with Alexa 488 for 20 additional minutes at 4° C. in the dark before being washed 3 times in FACS buffer. The binding of anti-IGF-1R antibody was immediately performed on viable cells which were identified using propidium iodide (that stains dead cells). The expression level (Bmax) was low on normal cells (Table 14) compared to IGF-1R expression on MCF-7 cells (see example 2, table 8).

[5] = tested on: Human Aortic Endothelial Cells (HAoEC); assay: FACS binding of c208F2 on primary normal cells; settings: 10 μg/ml of c208F2, HAoEC
Experimental: as §7

[6] = tested on: Human Bronchial Smooth Muscle Cells (HBSMC); assay: FACS binding of c208F2 on primary normal cells; settings: 10 μg/ml of c208F2, HBSMC
Experimental: as §7

[7] = tested on: Human Renal Epithelial Cells (HREpC); assay: FACS binding of c208F2 on primary normal cells; settings: 10 μg/ml of c208F2, HREpC
Experimental: as §7

[8] = tested on: Human Pulmonary Microvascular Endothelial Cells (HPMEC); assay: FACS binding of c208F2 on primary normal cells; settings: 10 μg/ml of c208F2, HPMEC
Experimental: as §7

B1: c208F2: chimeric 208F2 antibody, heavy chain SEQ ID No. 23, light chain SEQ ID No. 28 (antibody)
heavy: QVQLQQSGPELVKPGASVKMSCKASGYTFTSYYIYWVKQRPGQGLEWLGWIWPGDGSTKYNEKFKDKTTLTADKSSNTAYMFLSSLTSEDSAVYFCASPMITPNYAMDYWGQGASVTVSSASTKGPSVFPLAPSSKSTSGGTAALGCLVKDYFPEPVTVSWNSGALTSGVHTFPAVLQSSGLYSLSSVVTVPSSSLGTQTYICNVNHKPSNTKVDKRV[human IgG1 Fc not written out]
light: DIQMTQTTSSLSASLGDRVTISCRASQDISKYLNWYQQQPDGTIKLLIYYTSRLHSGVPSRFSGRGSGTDYSLTISNVEQEDIATYFCQQGSTLPYTFGGGTKLEIKRTVAAPSVFIFPPSDEQLKSGTASVVCLLNNFYPREAKVQWKVDNALQSGNSQESVTEQDSKDSTYSLSSTLTLSKADYEKHKVYACEVTHQGLSSPVTKSFNRGEC
modifications: c208F2, heavy chain, full length; c208F2, light chain, full length
koff ([1]; 25° C., 1:1 model): 0.00034 s⁻¹ | Kd ([1]; around 160 RU captured): ~0.2 nM and 0.23 nM | koff ([2]; 25° C., 1:1 model): 0.00031 s⁻¹ | Kd ([2]; around 160 RU captured): ~0.2 nM and 0.17 nM | Kd [3]: 0.22 nM | koff [3]: 0.000333 s⁻¹ | EC50 (IGF-1R on MCF-7 cells): 0.18 nM | Bmax [4]: 181 | Bmax [5]: 21 | Bmax [6]: 26 | Bmax [7]: 110 | Bmax [8]: 33

Several values for one entry are separate records, joined by “and”; a condition that tells them apart may be missing. Equal values may be shown once.
